The text below walks through data of the antibiotic and cytotoxicity screens of Wong et al. (2023).

Experiment [1] has as its system HSkMC (human skeletal muscle cells). Briefly: cytotoxicity call (relative viability < 0.9). The note with it: 10 µM.
Experiment [2] relates to HepG2. The experiment can be described thus: cytotoxicity call (relative viability < 0.9). The note with it: 10 µM.
The test system of experiment [3] is S. aureus RN4220. Briefly: growth inhibition call (relative growth <= 0.2). The note with it: 50 µM.

This is one part of the list.

Turning to `COc1ccc2c3c(n(c2c1)C)[C@@H](CO)N(C[C@]13CCN(CC1)C(=O)c1cccnc1)C(=O)c1cccnc1`, the cytotoxicity call in experiment [1] and in experiment [2] was “inactive” each time. Besides, the growth inhibition call in experiment [3] was “inactive”.

As to `CC(C)NCC(O)COc1cccc2ccccc12.Cl` (stereo unspecified), the cytotoxicity call in experiment [1] was “inactive”. Moreover, the cytotoxicity call in experiment [2] was “active”. In experiment [3], the growth inhibition call is “inactive”.

For the compound `CC(C)NC(=O)N(C)C[C@@H]1Oc2c(NC(=O)C3CCCCC3)cccc2C(=O)N([C@@H](C)CO)C[C@H]1C`, the cytotoxicity call in experiment [1] and in experiment [2] was “inactive” each time. For the same compound, in experiment [3], the growth inhibition call is “inactive”.

For the compound `COc1ccc(NC(=O)N(C)C[C@@H]2Oc3ccc(NC(=O)C4CC4)cc3C(=O)N([C@@H](C)CO)C[C@H]2C)cc1`, the cytotoxicity call in experiment [1] and in experiment [2] was “inactive” in each case. In addition, in experiment [3], the growth inhibition call is “inactive”.

On to `CCCC#Cc1ccc2c(c1)O[C@H](CN(C)C(=O)c1cnccn1)[C@H](C)CN([C@H](C)CO)S2(=O)=O`, for which the cytotoxicity call in experiment [1] and in experiment [2] was “inactive” in each case. For the same compound, the growth inhibition call in experiment [3] is “inactive”.

Take `O=C(C[C@H]1CC[C@H]2[C@@H](COC[C@@H](O)CN2S(=O)(=O)c2ccccc2F)O1)N1CCC(Cc2ccccc2)CC1`: the cytotoxicity call in experiment [1] and in experiment [2] was “inactive” each time. Moreover, in experiment [3], the growth inhibition call is “inactive”.

In the case of `Cc1noc(C)c1NC(=O)N(C)C[C@H]1OCCCC[C@H](C)Oc2ccc(NC(=O)Cc3ccccc3)cc2C(=O)N([C@H](C)CO)C[C@@H]1C`, the cytotoxicity call in experiment [1] and in experiment [2] was “inactive” each time. In addition, in experiment [3], the growth inhibition call was “inactive”.

For the compound `CC[C@@H](C[C@@H](O)[C@@H](C)[C@H]1CC[C@H]2C3=CC(=O)[C@H]4[C@H](C)[C@@H](OC(=O)c5ccccc5)CC[C@]4(C)[C@H]3CC[C@]12C)C(C)C`, the cytotoxicity call in experiment [1] and in experiment [2] was “inactive” each time. Moreover, the growth inhibition call in experiment [3] is “inactive”.

In the case of `CCS(=O)(=O)N1C[C@]2(CCN(CC2)S(=O)(=O)c2cn(cn2)C)c2c(n(c3cc(ccc23)OC)C)[C@H]1CO`, the cytotoxicity call in experiment [1] and in experiment [2] was “inactive” in each case. In addition, the growth inhibition call in experiment [3] was “inactive”.

In the case of `CCOc1ccc2nc(C34CC5CC(CC(C5)C3)C4)ccc2c1`, the cytotoxicity call in experiment [1] and in experiment [2] was “inactive” throughout. For the same compound, the growth inhibition call in experiment [3] was “inactive”.

In the case of `Nn1c(-c2ccncc2)nncc1=O`, the cytotoxicity call in experiment [1] and in experiment [2] was “inactive” in each case. Besides, the growth inhibition call in experiment [3] is “inactive”.

As to `O=C(C[C@H]1CC[C@H]2[C@@H](COC[C@@H](O)CN2C(=O)Nc2ccc(Cl)c(Cl)c2)O1)NCc1ccc(Cl)c(Cl)c1`, the cytotoxicity call in experiment [1] is “inactive”. Moreover, the cytotoxicity call in experiment [2] is “active”. Besides, the growth inhibition call in experiment [3] is “inactive”.

On to `Cc1noc(C)c1NC(=O)N(C)C[C@@H]1Oc2c(NS(=O)(=O)c3c(C)noc3C)cccc2C(=O)N([C@H](C)CO)C[C@@H]1C`, for which the cytotoxicity call in experiment [1] and in experiment [2] was “inactive” each time. Also, the growth inhibition call in experiment [3] is “inactive”.

For the compound `CC(C)NC(=O)Nc1ccc2c(c1)C(=O)N([C@H](C)CO)C[C@@H](C)[C@H](CN(C)Cc1ccccc1)OCCCC[C@H](C)O2`, the cytotoxicity call in experiment [1] and in experiment [2] was “inactive” in each case. The growth inhibition call in experiment [3] was “inactive”.

In the case of `C[C@@H]1CN([C@H](C)CO)C(=O)c2cc(NC(=O)C3CC3)ccc2O[C@H]1CN(C)S(=O)(=O)c1ccccc1`, the cytotoxicity call in experiment [1] and in experiment [2] was “inactive” in each case. In addition, the growth inhibition call in experiment [3] is “inactive”.

`Cc1noc(C)c1NC(=O)Nc1ccc2c(c1)C(=O)N([C@H](C)CO)C[C@H](C)[C@H](CN(C)S(=O)(=O)c1ccccc1)O2`: the cytotoxicity call in experiment [1] and in experiment [2] was “inactive” in each case. In experiment [3], the growth inhibition call was “inactive”.

Regarding `NC/C=C\C(=O)O`, the cytotoxicity call in experiment [1] and in experiment [2] was “inactive” throughout. Besides, the growth inhibition call in experiment [3] is “inactive”.

`c1ccc2cc3nc4c(ccc5ccccc54)nc3cc2c1`: the cytotoxicity call in experiment [1] and in experiment [2] was “inactive” each time. Moreover, the growth inhibition call in experiment [3] is “inactive”.

`COc1ccc(NC(=O)N(C)C[C@H]2OCCCC[C@H](C)Oc3ccc(NC(=O)Nc4ccc(C(F)(F)F)cc4)cc3C(=O)N([C@H](C)CO)C[C@@H]2C)cc1`: the cytotoxicity call in experiment [1] and in experiment [2] was “inactive” throughout. The growth inhibition call in experiment [3] was “inactive”.

For the compound `C[C@@H]1CN([C@H](C)CO)S(=O)(=O)c2ccc(C#CC3(O)CCCC3)cc2O[C@@H]1CN(C)C(=O)c1cccnc1`, the cytotoxicity call in experiment [1] and in experiment [2] was “inactive” throughout. In addition, in experiment [3], the growth inhibition call is “inactive”.

Regarding `N#Cc1ncoc1N1CCC(C(N)=O)CC1`, the cytotoxicity call in experiment [1] and in experiment [2] was “inactive” throughout. For the same compound, the growth inhibition call in experiment [3] is “inactive”.

Turning to `Cc1noc(C)c1NC(=O)Nc1ccc2c(c1)CC(=O)N([C@H](C)CO)C[C@H](C)[C@@H](CN(C)S(=O)(=O)c1cn(C)cn1)O2`, the cytotoxicity call in experiment [1] and in experiment [2] was “inactive” in each case. Besides, the growth inhibition call in experiment [3] was “inactive”.

Take `Cc1noc(C)c1NC(=O)N(C)C[C@@H]1Oc2c(NS(=O)(=O)c3cn(C)cn3)cccc2C(=O)N([C@@H](C)CO)C[C@H]1C`: the cytotoxicity call in experiment [1] and in experiment [2] was “inactive” in each case. Further, the growth inhibition call in experiment [3] was “inactive”.

For `COc1ccccc1NC(=O)N(C)C[C@H]1Oc2cc(Br)ccc2S(=O)(=O)N([C@H](C)CO)C[C@H]1C`, the cytotoxicity call in experiment [1] and in experiment [2] was “inactive” each time. Moreover, the growth inhibition call in experiment [3] was “inactive”.

In the case of `C[C@@H]1CN([C@@H](C)CO)C(=O)c2cc(NC(=O)Nc3cccc4ccccc34)ccc2O[C@H]1CN(C)Cc1ccc(C(=O)O)cc1`, the cytotoxicity call in experiment [1] and in experiment [2] was “inactive” in each case. Also, in experiment [3], the growth inhibition call is “inactive”.

As for `C[C@H](CO)N1C[C@H](C)[C@H](CN(C)CC2CCCCC2)Oc2ccc(NC(=O)CCCCCC(=O)Nc3ccccc3N)cc2CC1=O`, the cytotoxicity call in experiment [1] and in experiment [2] was “inactive” throughout. The growth inhibition call in experiment [3] was “inactive”.

Regarding `Cc1ccc(S(=O)(=O)Nc2cccc3c2O[C@H](CN(C)Cc2ccc(Cl)c(Cl)c2)[C@@H](C)CN([C@@H](C)CO)C3=O)cc1`, the cytotoxicity call in experiment [1] and in experiment [2] was “inactive” in each case. The growth inhibition call in experiment [3] is “inactive”.
